According to PubChem BioAssay AID902 (National Center for Advancing Translational Sciences (NCATS), 2007):
“And” between values parts separate entries of the source, which are not always exact repeats. Equal values may be shown once. Out of some 130,000 compounds screened, about 1,900 (1.5%) were called active. The inconclusive results got no clear call from the source; some entries with a clear call stand among them for comparison. The call rests on the fitted dose curve; in most records, active means well fitted cell-killing curve with a large enough effect; inconclusive means small, poorly fitted or top-dose-only effect; inactive means no such curve, though single readings can be large or run the other way. Potencies of inconclusive entries are doubtful fits and often do not repeat.

test: qHTS Screen for Compounds that Selectively Target Cancer Cells with p53 Mutations: Cytotoxicity of p53ts Cells at the Nonpermissive Temperature; settings: H1299-p53A138V viability at 39C, ATP luminescence, 24 h; activity change, negative = cell killing: at 46.1 µM (top of the series); further: nearly all actives have a fitted effect of over 55% in size
On the % scale 0 is the no-effect control and ±100 the full control effect; potency means the concentration at half of the fitted maximal effect; tags describe the fitted curve by direction and shape.

Compound	Potency	activity change, negative = cell killing
COc1ccc(Nc2oc(COc3ccc(OC)cc3)nc2C#N)cc1	inconclusive: 22.4 µM [cytotoxic, single point]	–
Cc1cc(N)c2cc(NC(=O)Nc3ccc4nc(C)cc(N)c4c3)ccc2n1	–	inactive: -3.58% [at 9.22 µM]
COc1ccc(OC)c(C(=O)COC(=O)c2cc(C)oc2C)c1	inconclusive: 11.2 µM [cytotoxic, single point]	–
CCOCCCNC(=O)c1ccc(-n2c(-c3ccccc3)cc3c2CCC(C)C3)cc1 (stereo not given)	inconclusive: 25.1 µM [cytotoxic, single point]	–
CCOc1ccc2nc(N3CCCC(C(=O)NCCc4ccc(OCC)c(OCC)c4)C3)sc2c1 (stereo not given)	inconclusive: 0.004 µM [cytotoxic, full curve, poor fit]	–
CO[C@@H]1COC(=O)[C@H](C)NC(=O)[C@@H](C)COC(=O)CCC[C@H]1C	–	inactive: 5.73% [at 9.22 µM]
Cc1cc(OCC(=O)Nc2cc(-c3nc4ncccc4o3)ccc2C)ccc1Cl	inconclusive: 12.6 µM [cytotoxic, partial curve]	–
CCc1ccc(OC(=O)c2ccn(CC)n2)cc1	–	inactive: -3.04%
COc1ccccc1CNC(=O)c1cc2c(=O)oc3ccc(C)cc3c2s1	inconclusive: 12.6 µM [cytotoxic, single point]	–
COc1ccc(CNC(=O)c2cc3c(=O)n(Cc4cccnc4)ccc3nc2C)cc1	–	inactive: -14.2%
O=C(NCCc1ccccc1)c1nc2c(nnn2Cc2ccccc2Cl)c(=O)[nH]1	–	inactive: -11.5%
Nc1ccc(-c2ccc3ccccc3n2)cc1	inconclusive: 10 µM [cytotoxic, partial curve]	–
c1ccc2c(c1)NC1(CCCCC1)n1c-2nc2ccccc21	inconclusive: 10 µM [cytotoxic, partial curve]	–
N#Cc1cccc(-c2nc3cnc(N4CCNCC4)nc3n(C3CC3)c2=O)c1	inconclusive: 31.6 µM [cytotoxic, single point]	–
CCc1ccccc1NS(=O)(=O)c1ccc2nc(-c3ccccc3)[nH]c2c1	inconclusive: 10 µM [cytotoxic, single point]	–
Cc1ccc(N2C(=O)c3n[nH]c(C)c3C2c2ccc(Cl)cc2)cc1 (stereo not given)	inconclusive: 31.6 µM [cytotoxic, single point]	–
COc1ccccc1-c1nnc(NC(=O)c2ccc(S(=O)(=O)N(C)C)cc2)o1	inconclusive: 10 µM [cytotoxic, partial curve]	–
N=C1N=C(N)c2cc3ccccc3cc21	inconclusive: 25.1 µM [cytotoxic, partial curve]	–
Cn1c(=O)c(C(=O)Nc2ccccn2)c(O)c2ccccc21	inconclusive: 3.98 µM [cytotoxic, full curve, poor fit]	–
CCCC(=O)Nc1cc2nn(-c3ccccc3)nc2cc1C	inconclusive: 2 µM [cytotoxic, full curve, poor fit]	–
Cc1ccccc1CCNC(=O)c1ccc2c(c1)nc1n2CCOC1	active: 6.31 µM	–
CCCN(CCC)CCCNC(=O)C1CCCN(Cc2nc(-c3ccc(Cl)cc3)oc2C)C1 (stereo not given)	inconclusive: 3.16 µM [cytotoxic, partial curve]	–

Compound	Potency	activity change, negative = cell killing
Cc1ccc(-n2ncc3c(NC(C)c4ccccc4)ncnc32)cc1 (stereo not given)	inconclusive: 12.6 µM [cytotoxic, partial curve, poor fit]	–
COc1ccc(NC(=O)Cn2c(=O)n(Cc3ccccc3OC)c(=O)c3cccnc32)cc1Cl	inconclusive: 10 µM [cytotoxic, partial curve]	–
O=S(=O)(c1ccc(Cl)cc1)c1nc(-c2cccs2)oc1SCc1ccc(F)cc1	inconclusive: 1 µM [cytotoxic, partial curve]	–
CC1(C)N=C(SCc2ccccc2Cl)c2ccccc2N1	–	inactive: -9.3%
COc1ccc(S(=O)(=O)Nc2ccc3oc4c(c3c2)CCCC4)cc1	inconclusive: 31.6 µM [cytotoxic, single point]	–
COC(=O)c1cc(-c2ccc3c(c2)OCO3)nc2ccccc12	inconclusive: 12.6 µM [cytotoxic, single point]	–
Cc1sc2ncn(CC(=O)Nc3ccc(C(C)C)cc3)c(=O)c2c1S(=O)(=O)N1CCN(c2ncccn2)CC1	inconclusive: 12.6 µM [cytotoxic, partial curve]	–
Cc1nn(-c2ccc(N3CCCCC3)nn2)c(C)c1CCC(=O)Nc1ccc(F)cc1F	inconclusive: 25.1 µM [cytotoxic, single point]	–
O=C(CCSCc1cccc(Cl)c1)N1CCN(c2ccc(Cl)cc2)CC1	inconclusive: 0.005 µM [cytotoxic, full curve, poor fit]	–
CCOc1ccc(NS(=O)(=O)c2ccc(C(=O)N(C)C)s2)cc1	–	inactive: -22.7%
COc1ccc(CCNC(=O)CCCCn2c(=O)c3ccccc3n(CC(=O)Nc3c(C)cccc3C)c2=O)cc1OC	inconclusive: 31.6 µM [cytotoxic, single point]	–
C#CCn1c(=NC(=O)c2ccc3c(c2)OCCO3)sc2cc(OC)c(OC)cc21	–	inactive: -9.21%
Cc1ccc(C)c(CN2C(=O)C(O)(c3c(C)[nH]c4ccccc34)c3ccccc32)c1 (stereo not given)	inconclusive: 15.8 µM [cytotoxic, single point]	–
O=C1NCN(c2ccccc2)C12CCN(CCCC(c1ccc(F)cc1)c1ccc(F)cc1)CC2	inconclusive: 20 µM [cytotoxic, single point] and inconclusive: 12.6 µM [cytotoxic, partial curve]	–
Cc1cc(N2CCC(C)CC2)nc2ccc(NC(=O)Cc3c(F)cccc3Cl)cc12	–	inactive: -13.1%
CC1(C)O[C@H]2[C@@H](O1)[C@@H](C(=O)Nc1ccccc1C(F)(F)F)O[C@@H]1OC(C)(C)O[C@@H]12	–	inactive: 4.76%
O=C1CC(Sc2nnnn2C2CCCCC2)C(=O)N1c1ccccc1 (stereo not given)	inconclusive: 20 µM [cytotoxic, single point]	–
Cc1oc(-c2cccc(Cl)c2)nc1CS(=O)(=O)CC(=O)NC(C)CCc1ccccc1 (stereo not given)	inconclusive: 31.6 µM [cytotoxic, single point]	–
CC(=O)c1ccc(N2CCN(c3ncnc4c3c(-c3ccccc3)cn4-c3ccc(Cl)cc3)CC2)cc1	inconclusive: 2.51 µM [cytotoxic, full curve]	–
CCOC(=O)c1cc(S(=O)(=O)Nc2cc(F)ccc2C)[nH]n1	–	inactive: -0.246%
COc1ccc(-c2cc(C(F)(F)F)n3nc(-c4ccccc4)cc3n2)cc1OC	inconclusive: 3.16 µM [cytotoxic, single point]	–
Cc1cccc2c1N(Cc1ccccc1OCCC(C)C)C(=O)C2=O	inconclusive: 31.6 µM [cytotoxic, single point]	–

Compound	Potency	activity change, negative = cell killing
COc1ccc(-n2c(=O)c3c(c4cc(OC)ccc4n3C)n(Cc3cccc(C)c3)c2=O)cc1	inconclusive: 0.0071 µM [cytotoxic, partial curve, poor fit]	–
Clc1ccccc1-c1nnc(COc2ccccc2)o1	–	inactive: -15.8%
CCOc1ccc(NC(=O)CSc2oc(-c3ccc(F)cc3)nc2S(=O)(=O)c2ccc(C)cc2)cc1	inconclusive: 2 µM [cytotoxic, full curve]	–
Cc1ccc2oc(-c3ccc(C)c(NC(=O)C(C)(C)Oc4ccc(Cl)cc4)c3)nc2c1	inconclusive: 12.6 µM [cytotoxic, partial curve]	–
O=C1N(Cc2ccccc2Cl)c2ccccc2C1(O)c1c[nH]c2ccccc12 (stereo not given)	inconclusive: 25.1 µM [cytotoxic, single point]	–
CC1=C(C(=O)OCC2CCCCC2)C(c2ccc(Cl)cc2)CC(=O)N1 (stereo not given)	inconclusive: 31.6 µM [cytotoxic, single point]	–
C/C=C\C1=C(CO)C(=O)C2O[C@]2(CC=C(C)C)C1=O (stereo not given in full)	–	inactive: 1.89% [at 9.22 µM]
Fc1cccc(-c2nnn3c2nc(NC2CCCCC2)c2ccccc23)c1	inconclusive: 0.01 µM [cytotoxic, full curve, poor fit]	–
COc1cc(C(=O)OCC(=O)c2cc(C)n(C)c2C)cc(OC)c1OC	–	inactive: -5.68%
COc1cc(S(=O)(=O)NCCc2c(C)[nH]c3ccccc23)c(C)cc1C	inconclusive: 0.794 µM [cytotoxic, partial curve]	–
CC(=O)N1CCc2cc(S(=O)(=O)C(C)CC(=O)Nc3ccc(Br)c(C)c3)ccc21 (stereo not given)	inconclusive: 5.01 µM [cytotoxic, partial curve]	–
COc1ccc(NC(=O)CSc2nc3c(oc4ccccc43)c(=O)n2Cc2ccco2)cc1Cl	inconclusive: 12.6 µM [cytotoxic, single point]	–
Cc1ccc(Cl)cc1-n1ncc2c(N3CCN(Cc4ccccc4)CC3)ncnc21	active: 20 µM	–
CCOc1ccc(-c2nnc3ccc(SCc4ccc(C(=O)OC)o4)nn23)cc1	–	inactive: -14.1%
Cc1cc(C)cc(NC(=O)Cn2cc(C(=O)C3CCCCC3)c3ccccc32)c1	active: 10 µM	–
CCOc1ccc(NC(=O)c2c(NC(=O)Cc3ccccc3)sc3c2CCCCC3)cc1	active: 10 µM	–
CCN(CC)CCCNc1ncnc2c1cnn2-c1ccc(C)c(C)c1	inconclusive: 7.94 µM [cytotoxic, partial curve]	–
c1c2c(cc3sc(N4CCOCC4)nc13)OCO2	inconclusive: 10 µM [cytotoxic, partial curve]	–
COc1ccc(CCNc2ncnc3c2cnn3-c2cc(Cl)ccc2C)cc1	inconclusive: 25.1 µM [cytotoxic, single point]	–
CCN(Cc1ccccc1)S(=O)(=O)c1ccc(C(=O)Nc2nnc(-c3ccccc3OC)o2)cc1	active: 12.6 µM	–
COc1ccc(Nc2oc(-c3ccc(COc4ccccc4C)o3)nc2C#N)cc1	inconclusive: 0.158 µM [cytotoxic, full curve, poor fit]	–
